This is an account of results in the supplement of paper PMC3334620.

The full ranking holds about 33,000 sequences; the median of “E-score (-0.5 to 0.5)” is about -0.032, and the highest 2% start at about 0.36. This is one part of the list.

The target in this assay is T1, Sko1 (UniProt Q02100).
T1 sequence: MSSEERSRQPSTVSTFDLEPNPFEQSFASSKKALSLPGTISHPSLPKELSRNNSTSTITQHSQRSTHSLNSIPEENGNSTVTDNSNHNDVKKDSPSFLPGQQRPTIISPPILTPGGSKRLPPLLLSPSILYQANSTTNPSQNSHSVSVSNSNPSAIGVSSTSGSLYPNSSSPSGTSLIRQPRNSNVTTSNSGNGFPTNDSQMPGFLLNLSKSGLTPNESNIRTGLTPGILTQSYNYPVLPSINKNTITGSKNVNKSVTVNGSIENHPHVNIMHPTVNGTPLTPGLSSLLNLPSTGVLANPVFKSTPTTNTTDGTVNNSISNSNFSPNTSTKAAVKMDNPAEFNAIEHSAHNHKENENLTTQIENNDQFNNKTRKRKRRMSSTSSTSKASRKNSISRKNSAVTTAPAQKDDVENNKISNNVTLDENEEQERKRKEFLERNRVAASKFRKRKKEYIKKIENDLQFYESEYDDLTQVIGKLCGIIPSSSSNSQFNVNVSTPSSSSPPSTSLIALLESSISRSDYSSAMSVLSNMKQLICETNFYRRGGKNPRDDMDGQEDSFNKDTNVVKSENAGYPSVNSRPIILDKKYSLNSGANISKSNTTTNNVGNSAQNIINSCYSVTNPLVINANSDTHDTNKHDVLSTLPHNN
Put plainly: PBM E-score (8-mer binding enrichment) (E-score (-0.5 to 0.5)); higher = stronger / more preferred TF binding; most listed sequences are background and not binding sites. The settings on record: protein concentration: 200 nM; construct: GST-full length. Here is the method:
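Universal 'all 10-mer' protein binding microarrays (Agilent AMADID 015681) probed with GST-tagged S. cerevisiae TFs (full-length or DBD) made by in vitro transcription/translation (PURExpress), about 100-200 nM. Bound TF was detected with fluorescent anti-GST. Each ungapped 8-mer (which stands for itself and its reverse complement) is scored by the PBM enrichment score (E-score), a modified Wilcoxon-Mann-Whitney statistic from -0.5 to +0.5, computed with the Universal PBM Analysis Suite. Scale: above 0.35 generally sequence-specific binding.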
For AAATCGCA, the “PBM E-score” value is 0.0506. The value for CAGTGCCG was -0.107; that for GCAGATTA was 0.0653.

As to CGGGGTAG, the “PBM E-score” value is -0.238.

For the sequence AATTATTC, the “PBM E-score” value was 0.198. The value for GAATCGCC was -0.312; that for TTGGTAAA was 0.176.

For AGGCTTCC, the “PBM E-score” value was -0.0277. The figure for CCCGTGAA is -0.159. The value for CGGATGTA was -0.13; that for AGGAGGCA was -0.291; that for TGATCTAA was 0.22. As to GTAGAAAA, the “PBM E-score” value came to 0.148. The figure for AGCCGATA is -0.00978. For the sequence GGTCTGAA, the “PBM E-score” value is -0.0247.

As for CTTGACTC, the “PBM E-score” value was -0.276. The value for ACTTACGG was 0.172. ATGAGGCC: the “PBM E-score” value was -0.157. The figure for GCTGTGGA is -0.114; for ACAGACGG it is -0.262. The value for AAATGGCC was -0.199. The figure for CAAAGGGA is -0.049; for TGCGTTAA it is 0.157; for AGTACCAA it is 0.101. As to CCGGGCCC, the “PBM E-score” value was -0.204. The value for AGCACGTC was 0.309. Regarding ACGGCGGA, the “PBM E-score” value was -0.268. The figure for CACGGTTA is 0.163; for CAAATTCC it is 0.0969; for CCATAGAA it is 0.032.

For AACATCAC, the “PBM E-score” value is 0.286.

GGAATCGA: the “PBM E-score” value is -0.212.

Regarding GTATCACA, the “PBM E-score” value amounted to 0.191. On to TTACAGAA, for which the “PBM E-score” value was -0.0258. The figure for AGTCGTGG is -0.168; for GAACAAAC it is 0.115. The figure for ATACACAC is 0.13; for ACAGTATG it is 0.0478; for AGTCCACA it is -0.0149.

Take AGCGCCTC: the “PBM E-score” value is -0.262. The figure for CACTTCCA is 0.109. The value for CATATAAC was 0.0712; that for ACCCCACT was -0.145. The value for CGGGTTCA was -0.146; that for AAATGTAT was 0.143; that for GGTCTTCA was -0.194.

CAAGCCGA: the “PBM E-score” value was -0.00099.

For AAGCACAG, the “PBM E-score” value was -0.122. The figure for AACATTAT is 0.254. Take CAGATGTA: the “PBM E-score” value is -0.0918. The figure for GGGGATAA is -0.0543; for AAAGCAAC it is 0.031; for AACAGTCG it is -0.00213. The value for TCTAGCCA was -0.0648; that for CCCTTCGC was -0.283; that for ACTCCGGG was -0.187. The figure for GCCAAGTA is -0.194; for CGCTACTA it is -0.00771; for GCGCTGTA it is -0.0815. As for GCACGAAA, the “PBM E-score” value was determined as 0.232. The value for ATTCGTGA was 0.258; that for ACATTGCG was 0.242; that for AACACCCA was -0.164. For the sequence GACAATGA, the “PBM E-score” value was -0.0527. With ATCATATC, the “PBM E-score” value was found to be 0.213. The figure for ATAGAGAT is 0.167. The figure for GAGTGCCA is -0.312. The figure for GCAGCCGA is -0.0383. Regarding ATCAACGA, the “PBM E-score” value turned out to be 0.0428. Take CAGGACAC: the “PBM E-score” value is -0.0751. The value for TATAATCA was 0.241; that for AAATATAT was 0.214; that for AACAACCG was -0.023. Consider CAAGAATC, for which the “PBM E-score” value turned out to be 0.0872. CGCAAAAA: the “PBM E-score” value was 0.152. The value for TGCTGACA was -0.0482. The value for CCCTGCGG was -0.353; that for AACACTCT was 0.0483; that for AAAAGTGG was -0.0168.

Regarding ACAATGTC, the “PBM E-score” value was found to be 0.0291. The value for AGTACTAT was -0.0967; that for CCAAATGC was -0.101. The value for ATTACTCA was 0.141. The value for ACTATGCC was -0.0258. Turning to TCGGGTCA, the “PBM E-score” value was -0.115. The figure for CGCTATAA is 0.112; for AAGCGTGT it is -0.0816; for ATCCGCCG it is -0.0883. As for AGTTGTTA, the “PBM E-score” value was 0.0184. The value for AGCCAGTG was -0.181; that for AGTTAACC was -0.0694. For the sequence AGGAGCAT, the “PBM E-score” value came out at 0.052.

For the sequence CGAGACGC, the “PBM E-score” value is -0.106. Take AATACATT: the “PBM E-score” value came to 0.0985.
